Source: the supplement of paper PMC3334620
The full ranking holds about 33,000 sequences; the median of “E-score (-0.5 to 0.5)” is about -0.011, and the highest 2% start at about 0.28. The list shows a part of the results.

biological target: T1, Gcr1 (UniProt P07261); assay: PBM E-score (8-mer binding enrichment) (E-score (-0.5 to 0.5)); higher = stronger / more preferred TF binding; most listed sequences are background and not binding sites; conditions: protein concentration: 100 nM; construct: GST-full length
T1 sequence: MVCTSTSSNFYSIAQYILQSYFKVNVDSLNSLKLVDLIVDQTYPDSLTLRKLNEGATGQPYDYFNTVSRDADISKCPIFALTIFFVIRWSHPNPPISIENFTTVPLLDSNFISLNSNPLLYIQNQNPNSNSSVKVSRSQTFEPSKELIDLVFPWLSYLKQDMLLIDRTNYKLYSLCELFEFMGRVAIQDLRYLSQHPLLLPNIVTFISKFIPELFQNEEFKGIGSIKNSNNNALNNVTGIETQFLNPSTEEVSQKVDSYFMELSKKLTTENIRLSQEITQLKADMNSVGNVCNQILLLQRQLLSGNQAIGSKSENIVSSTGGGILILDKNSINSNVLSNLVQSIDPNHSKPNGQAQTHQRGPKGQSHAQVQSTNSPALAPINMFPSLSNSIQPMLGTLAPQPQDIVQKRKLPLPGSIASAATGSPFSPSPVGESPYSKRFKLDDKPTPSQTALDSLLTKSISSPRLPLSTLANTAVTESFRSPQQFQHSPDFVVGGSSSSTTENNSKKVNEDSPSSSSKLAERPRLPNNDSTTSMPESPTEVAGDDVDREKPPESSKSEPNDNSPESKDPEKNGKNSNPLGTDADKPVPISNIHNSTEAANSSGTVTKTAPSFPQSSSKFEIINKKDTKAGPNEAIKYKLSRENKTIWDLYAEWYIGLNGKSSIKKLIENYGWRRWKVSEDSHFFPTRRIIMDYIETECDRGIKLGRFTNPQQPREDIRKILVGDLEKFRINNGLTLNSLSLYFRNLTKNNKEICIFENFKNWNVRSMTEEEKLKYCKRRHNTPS
Summary of the method: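 PURExpress in vitro transcription/translation supplied GST-tagged yeast transcription factors, either full-length or DNA-binding domain. Applied at about 100-200 nM to universal all-10-mer Agilent arrays double-stranded by primer extension, the bound protein was detected with fluorescent anti-GST. E-scores, modified Wilcoxon-Mann-Whitney statistics, were given by the Universal PBM Analysis Suite to ungapped eight-base words pooled with their reverse complements after masliner normalisation.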

Sequence	PBM E-score
CTATGGTC	-0.0106
AGGGCCTA	-0.186
CTGGCATC	0.304
ACGCTTTC	-0.0885
TCCGGTCA	-0.0853
AATGTGCT	-0.128
ATTGTACG	-0.0743
GTCCAGTA	0.142
AACACAAT	-0.0322
GAAACTAA	-0.00464
GCTATGAA	-0.062
ATACACGC	0.158
ATCGGGTG	0.117
CTGCCCCA	0.00254
GCAACACC	-0.0293
ATTTTTAA	0.14
CAAAGGAC	-0.127
CGATGGTA	-0.0911
AGTCAAGC	-0.22
ACGCGCCA	0.196
AGCTACGG	0.00843
TCGCGAGA	-0.018
GACGATGC	0.227
AATAACGG	0.00207
CCACCCAA	-0.0626

Sequence	PBM E-score
GGTGGCAC	-0.109
CTCCATCA	-0.0491
GCCGTTAC	0.0706
CTCCTGTC	0.148
ATAAGGAG	0.0626
CAACAAGG	-0.161
CTGTGCAC	-0.149
AAAAATGA	0.13
CAACTATC	-0.137
GCCACAGA	-0.152
CGAAACCG	0.0372
AATGGGCA	0.103
AGATCGGG	0.0723
GCTCTAAA	0.189
ATAAAAGA	0.154
CCTATTCC	0.00421
GCGTCGGA	-0.0151
CTACGATA	0.151
GTGGCGCA	-0.151
ATCACGTC	-0.147
AGACTGTA	-0.0498
AATGGTGG	-0.00912
ACTGTCGG	-0.0468
AATGAAAA	0.106
TCCTGAAA	0.0632

Sequence	PBM E-score
AGGTTATC	-0.0158
CCGTCCAC	0.016
CGGTTTAG	-0.0328
AGCAGAAT	-0.032
AGTCGGAA	0.159
TCCAGCAA	-0.0847
GGGTGACA	-0.0192
TAAACACA	0.0289
AGGATCCG	0.0808
ATGTCAAC	-0.125
AATGATTG	-0.0386
AGGTTCGA	-0.226
ACAAAGCC	-0.0591
ACGCAGAT	0.151
CTCCTTCC	-0.0893
ATCTGGGA	0.191
CAAGGGCG	-0.109
CGCGCATC	0.252
GACGGACC	-0.00011
GCTATGGA	-0.0422
AGGGAACT	-0.104
ATGAATAA	0.0631
ACAGTATC	-0.0479
AGCTAACT	0.0253
ACGCTTGG	-0.214

Sequence	PBM E-score
CTGCTTGA	0.0481
AGATAGAC	-0.273
GAATCAGA	0.0639
ATATATGC	0.0854
CAAGATTC	0.122
ACTGCGCT	-0.0318
TCGTACCA	0.126
AATGTGAA	-0.108
ACGGATTA	-0.168
ATATCATC	0.0387
CTAAACCA	-0.00416
AACCTCAC	0.0098
GCCAAGCC	-0.0285
CCACCACG	0.0648
CCAGTCTC	0.0261
AGATAGTG	0.13
GCTACCAA	0.179
GCCGCGCC	0.00673
ACTGGAGG	0.206
ATGTTCCA	0.15
AGGCTTCA	-0.0957
ACTCTGGA	0.247
CTGAATTC	0.153
CCTAGAAG	-0.0773
ATAGGGAC	0.00435

Sequence	PBM E-score
GCCTCGAA	0.00437
TAGGCCTA	-0.0186
AAAGCCTG	-0.242
GCGTTGCA	-0.192
GATCAACC	-0.11
GTTCTTTA	-0.033
TAAGAACA	0.0714
ACACAGTG	-0.0742
GGCAAGAA	-0.14
GGGGCACA	-0.0447
GAGCAGGA	-0.147
GATACGCA	0.247
ACCCTGAA	0.192
AGCAACGA	-0.145
ATTCATGC	0.0643
GTTCGCTA	0.00019
TCTAATAA	0.0933
ACGTATGC	-0.147
AGCCACCA	0.143
ATATATAG	0.111
AAGGGTGG	0.00047
ATTGAGGA	0.066
AAGCATGA	-0.0745
CTTACCGA	-0.0397
CCAGGGGA	0.173

Sequence	PBM E-score
TCGCGACA	-0.316
TCGTTTAA	-0.0223
AGAATTTA	-0.062
CTGGGATA	0.0881
AATGATGA	-0.029
TCGCTCAA	0.0296
GGCGATAC	0.00202
TCGCAAAA	0.134
ATGGTAAT	-0.0376
AGATCGTA	-0.0375
AGCCACGG	0.0122
AACCATGG	-0.0354
ATGTACAT	-0.23
TTGGACAA	0.0231
CGTACCAG	0.125
AGCCGTCA	0.0949
ACTGAAGG	-0.152
AAACCTGA	0.112
GCGCTTGA	-0.15
CTAGGTGA	-0.196
CAGTGCAG	0.167
CGTAGCCA	0.106
ACGCACGC	0.031
GAATCGTC	0.089
CGGTTGGC	0.0698

Sequence	PBM E-score
CTTGGTAA	-0.133
GGCAGAAC	-0.0477
AGTCTAGC	0.0246
GACATCCC	0.0126
AATATAAA	0.0905
ATATTACA	0.191
CCAGAGGG	-0.166
GATCCTAA	0.0225
ATCTTTGG	0.206
ATTCGAGG	-0.0418
CTCAACAA	0.0958
CGCGAAGA	0.161
ACTTTTAA	0.0489
CCACGAGC	-0.177
AGTTTCCC	0.058
GATCGGGC	-0.126
CCTGTAAA	0.102
CCCTGAAA	-0.00775
AAAGCCAA	0.0021
AGATATGG	0.0487
ACTCTCGC	-0.149
CCGACTGC	-0.012
ATCTGCAA	-0.158
ACTCAGCT	0.0545
AGGAACGA	-0.108

Sequence	PBM E-score
ACCGCGCT	-0.117
ACTGCGGA	-0.12
GGTCCAAA	0.0677
ATTTTAGA	-0.0231
AGACCCAC	-0.0401
AGCACGCC	-0.0243
AGGAGGTA	-0.126
GCAGACAA	-0.0872
CAGACTTC	0.0524
CCGCTTCA	-0.0817
AGAGAGAT	-0.145
GGCCCGAA	0.00433
ATGGGTTA	0.117
GTACTACA	0.00701
ACTTTTTG	0.107
ACCAGTCC	-0.0636
TAGAATGA	-0.0985
GGGCGACA	-0.0268
AATCATCG	-0.0542
GCCGCGAC	-0.0367
CATGTTAA	-0.0217
ATTAGGCC	-0.116
ATCCCGAG	-0.102
GAGGAATA	-0.146
GCCCCGGC	-0.0485

Sequence	PBM E-score
CGGTCCAC	-0.225
AAGAGCCG	0.0279
GGGCACGA	0.0341
CACTTGAC	-0.222
GACTTATC	0.106
AGCTACTA	0.254
CGGTTGAA	-0.0759
AGAGACGC	0.242
ATCTACTC	-0.0333
CTAGAGCA	-0.0684
ATTCTCAC	-0.109
GTACAGGA	0.229
ACTGTAAT	0.0127
ACGCCGTG	0.0969
AGTGGAGG	0.082
ACATGCGG	-0.138
ATCGGAGG	-0.0859
GCTATGCA	-0.193
CACAAGCC	-0.251
